Results published in US20250059201A1, “CAMPTOTHECIN COMPOUND AND CONJUGATE THEREOF” (priority 2021, published 2025).

Key:
[1] = system: Trop-2-positive BxPC-3 tumor cells; assay: Binding activity to cells positive for Trop-2 (flow cytometry); details: binding to BxPC-3 cells, on ice 1 hour, n = 2
Protocol: (§1) Different concentrations (1, 3, 10, 30, 100, 300, 1000, 3000, 10000, 30000, and 100000 ng/mL) of fluorescently labeled Trop2-ADC-14 and the mAb in Trop2-ADC-14 (i.e., antibody h23-12) were incubated with BxPC-3 cells (purchased from: ATCC) on ice for 1 hour in dark, and then the cells were centrifuged to remove supernatant, washed with PBS, re-suspended, and the fluorescence intensity of the drugs bound to the cells was measured with a flow cytometer (BD ACCURI C6 PLUS). The experiment was repeated once.

[2] = system: Calu-3 human lung cancer cells; assay: Therapeutic effect on subcutaneous tumor in nude mice (lung cancer model); type: in vivo; details: for Mean tumor volume (mm^3) D 0: D 0 (baseline)
Protocol: (§2) Calu-3 lung cancer cells purchased from the cell bank in Chinese academy of sciences were used. Calu-3 cells were cultured in 10-cm culture dishes for adherent culture, in RPMI 1640 containing 10% Fetal Bovine Serum with penicillin and streptomycin supplemented, at 37° C. in an incubator containing 5% CO2. The cells were passaged 2-3 times in one week, and when in exponential growth phase, they were digested using trypsin, harvested, counted and inoculated.
(§3) A comparison study was performed between groups of different doses of antibody-drug conjugate Trop2-ADC-14 which was taken as an example (Table 15). Mice were administered with the ADC via intravenous injection (IV), at an administration volume of 10 mL/kg; the mice in the group of vehicle were administered with the same volume of vehicle (saline). Tumor volumes were measured 2 times per week, and the mice were weighed and the data were recorded.
(§4) When the experiment was completed, the experiment achieved the end point, or the tumor volume achieved 2000 mm^3, the animals were sacrificed under CO2 anesthesia and the tumors were dissected and photographed. Results are shown in Table 15 and FIG. 4, in which the growth changes in tumor volume of mice in each group are shown.

[3] = system: Trop-2-negative HT-29 cells; assay: Bystander effect study, Trop-2-negative cells separately cultured; type: cell-based; details: HT-29 separately cultured, 144 hours
Protocol: (§5) BxPC-3 cells (purchased from ATCC) positive for Trop-2 and HT-29 cells (purchased from ATCC) negative for Trop-2 were inoculated together, or the Trop-2-negative HT-29 cells were inoculated separately, in 6-well plates. […] Next, the cells were incubated with Dylight 488 NHS Ester labeled Trop2-ADC-14 on ice for 1 hour in dark, and then centrifuged to remove supernatant, re-suspended in PBS, washed with PBS three times, and cell proportions of BxPC-3 cells and HT-29 cells were detected and calculated using a flow cytometer BD ACCURI C6 PLUS, and the numbers of the two kinds of cells were calculated.

[4] = system: BxPC-3 cells positive for Trop-2 and HT-29 cells negative for Trop-2; assay: Bystander effect of ADCs targeting Trop-2, co-culture; type: cell-based; details: 144 hours
Protocol: as §5

BxPC-3 cells = assay: Apoptosis-inducing effect; type: cell-based
Protocol: BxPC-3 cells (purchased from: ATCC) were inoculated into 6-well plates, and then treated with Trop2-ADC-14 (0.020, 0.196, and 1.963 nM), DS-1062 (0.020, 0.196, and 1.963 nM), the mAb in Trop2-ADC-14 (i.e., antibody h23-12) (6.728 nM) and Compound 3 (0.1, 1, and 10 nM) for 120 hours. Next, the cells were harvested, and Annexin-V-FITC and PI were added thereto, and the cells were stained at room temperature for 15 minutes in dark, and finally were re-suspended in the added 300 μl of 1× binding buffer. Apoptosis was detected with a flow cytometer (BD AccuriTMC6 Plus flow cytometer), for which 1×10^4 cells were gated for each group. Experimental data was analyzed using software BD CSampler™ Plus C6.

[5] = system: HT1376 human bladder cancer cells; assay: Therapeutic effect on subcutaneous tumor in nude mice (bladder cancer model); type: in vivo; details: for Mean tumor volume (mm^3) D 0: D 0 (baseline)
Protocol: as §2, with “HT1376 human bladder” for “Calu-3 lung”, “HT1376” for “Calu-3”, “10o” for “10%”, “500” for “5%”
as §3, with “14).” for “15).”
as §4, with “14” for “15”, “3,” for “4,”

[6] = system: Trop-2-negative HT-29 cells; assay: Binding activity to cells negative for Trop-2
Protocol: as §1

B1: Trop2-ADC-14 (conjugate)
heavy: QVQLVQSGAEVKKPGASVKVSCKASGYTFTSYWMHWVRQAPGQGLEWMGEITPSDNYGSYNQKFKGRVTITRDTSTSTAYMELSSLRSEDTAVYYCARGHGNYVSFDYWGQGTLVTVSSASTKGPSVFPLAPSSKSTSGGTAALGCLVKDYFPEPVTVSWNSGALTSGVHTFPAVLQSSGLYSLSSVVTVPSSSLGTQTYICNVNHKPSNTKVDKRV[not shown - human IgG1 Fc]
light: DIQMTQSPSSLSASVGDRVTITCRASQDISNYLNWYQQKPGKAPKLLIYYTSRLESGVPSRFSGSGSGTDFTLTISSLQPEDFATYFCQQGYTLPPYTFGQGTKLEIKRTVAAPSVFIFPPSDEQLKSGTASVVCLLNNFYPREAKVQWKVDNALQSGNSQESVTEQDSKDSTYSLSSTLTLSKADYEKHKVYACEVTHQGLSSPVTKSFNRGEC
[1]
  EC50 (ng/mL, mean ± SD): 1296.0 ± 155.6 ng/mL
[2]; 1 mg/kg IV
  Mean tumor volume (mm^3) D 0: 119.6 mm^3
  Mean tumor volume (mm^3) D 21: 268.6 mm^3
  TGI (%) D 21: 88%
[2]; 3 mg/kg IV
  Mean tumor volume (mm^3) D 0: 121.1 mm^3
  Mean tumor volume (mm^3) D 21: 105.4 mm^3
  TGI (%) D 21: 113%
[2]; 10 mg/kg IV
  Mean tumor volume (mm^3) D 0: 121.6 mm^3
  Mean tumor volume (mm^3) D 21: 96.7 mm^3
  TGI (%) D 21: 120%
[3]
  effect on proliferation of the Trop-2-negative HT-29 cells separately cultured: no obvious effect
[4]; BxPC-3 and HT-29 inoculated together
  bystander effect: strong bystander effect
[4]; Trop2-ADC-14 at 30 ng/mL
  bystander killing effect compared with DS-1062a: comparable to that of reference drug DS-1062a at 300 ng/mL
BxPC-3 cells; BxPC-3, 0.196 nM, 120 hours
  apoptosis-inducing effect: obviously induced the degradation of protein pro-PARP
BxPC-3 cells; BxPC-3, 120 hours, over the tested concentrations
  apoptosis-inducing effect: concentration dependent
[5]; 1 mg/kg IV
  Mean tumor volume (mm^3) D 0: 126.07 mm^3
  Mean tumor volume (mm^3) D 21: 601.9 mm^3
  TGI (%) D 21: 49%
[5]; 3 mg/kg IV
  Mean tumor volume (mm^3) D 0: 125.82 mm^3
  Mean tumor volume (mm^3) D 21: 130.38 mm^3
  TGI (%) D 21: 100%
[5]; 10 mg/kg IV
  Mean tumor volume (mm^3) D 0: 124.94 mm^3
  Mean tumor volume (mm^3) D 21: 82.6 mm^3
  TGI (%) D 21: 134%
[6]
  binding to the Trop-2-negative HT-29 cells: no obvious binding
